Assay results reported in PubChem BioAssay AID686978 (National Center for Advancing Translational Sciences (NCATS), 2013).
The whole screen tested about 420,000 compounds, of which about 64,000 (15%) were called active. Inconclusive results, whose numbers are uncertain, are shown with a selection of clear calls. Calls follow the shape of the dose curve; as a rule, active = well fitted inhibition curve with a large enough effect; inconclusive = small, poorly fitted or top-dose-only effect; inactive = flat fitted curve, though single readings scatter. No potency is given beside an inconclusive call; the fits are too rough.

Test: qHTS for Inhibitors of human tyrosyl-DNA phosphodiesterase 1 (TDP1): qHTS in cells in absence of CPT; also: nearly all actives have a fitted effect of over 55% in size
Conditions: DT40 Tdp1-/- hTDP1 cells, no CPT, ATP luminescence, 48 h; activity change, negative = growth inhibition: at 46.2 µM (top of the series) unless noted
Summary of the method: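 Compound effects on proliferation are scored in DT40 Tdp1-/-;hTDP1 cells in the absence of CPT. ATP levels (CellTiter-Glo luminescence) are recorded after a ≥48 hr, 37 °C incubation.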
% is scaled to controls: 0 for no effect and ±100 for the full control effect; potency is read from the fitted curve at half-maximal effect; tags tell the direction and shape of the fitted curve.

| SMILES | Potency | activity change, negative = growth inhibition |
| --- | --- | --- |
| CCCCCC(=O)Nc1nc(C)c(-c2csc(Nc3ccccc3OC)n2)s1 | active: 18.4 µM |  |
| CCCn1c(SCC(=O)c2ccc3c(c2)NC(=O)CO3)nc2ccccc21 | active: 9.2 µM |  |
| COc1cc(Cl)ccc1OCc1cc(C(=O)NC(C)Cc2cccnc2)no1 (stereo unspecified) | inconclusive [inhibitor, single point] |  |
| CCOC(=O)C1CCCN(C(=O)c2cc(S(=O)(=O)N3CCCCC3)ccc2C)C1 (stereo unspecified) | inconclusive [inhibitor, partial curve] |  |
| COc1cc(OC)cc(-c2c(-c3cccs3)c3cc(-c4ccn[nH]4)ccc3n2C)c1 | active: 16.4 µM |  |
| CC(C)Oc1ccc(N2CC(C(=O)Nc3ccc(N4CCOCC4)cc3)CC2=O)cc1 (stereo unspecified) | inconclusive [inhibitor, full curve, poor fit] |  |
| Cc1ccc(C(=O)Nc2cnc3sc(C)nn3c2=O)cc1 |  | inconclusive: -31.7% [inhibitor] |
| COc1ccc(OC)c(NC(=O)Nc2ccc(Cl)cc2)c1 | inactive |  |
| Nc1cccnc1Sc1cccc(Cl)c1 | inactive |  |
| CCCCN(CC)Cc1ccc(CNC(=O)Nc2ccc(F)cc2)o1 | active: 5.62 µM |  |
| O=C(COC(=O)c1cncc(Br)c1)Nc1nc(-c2ccc(F)cc2)cs1 | inconclusive [inhibitor, single point] |  |
| Cc1ccc(S(=O)(=O)NCc2ccccc2)cc1C(=O)NC(C)c1ccc(S(N)(=O)=O)cc1 (stereo unspecified) | inactive |  |
| COCCn1c(SCc2ccccc2F)nc2ccccc2c1=O | inconclusive [inhibitor, single point] |  |
| COc1ccc(NC2CC(=O)N(c3ccc(C(=O)O)cc3)C2=O)cc1 (stereo unspecified) | inconclusive [inhibitor, single point] |  |
| COc1cc2nc(N(C)C)c(CNCc3cccc4ccccc34)cc2c(OC)c1OC | inconclusive [inhibitor, partial curve, poor fit] |  |
| CCc1nc2c(OCCC3CCCCC3)cccn2c1N(C)C(=O)c1ccccc1F | inconclusive [inhibitor, partial curve, poor fit] |  |
| CCOC(=O)C1CCN(C(=O)c2cccc(S(=O)(=O)N(C)C3CCCCC3)c2)CC1 | inconclusive [inhibitor, single point] |  |
| CC[C@@H](C)[C@@H]1CN([C@@H](CN2CCC[C@H]2CN2C(N)=NC[C@H]2CC(C)C)C(C)C)C(=N)N1CCCC1CCCC1 | inconclusive [inhibitor, single point] |  |
| CC(/C=N/Nc1nc(C)cc(C)n1)=C\c1ccc(C(C)C)cc1 | inconclusive [inhibitor, single point] |  |
| CCn1c(CNC(=O)c2ccc(Cl)cc2)nnc1SCC(=O)NC1=NCCS1 | inactive |  |
| CCOc1ccc2nc(N3C(=O)/C(=C/c4ccccc4)NC3=S)sc2c1 | inconclusive [inhibitor, single point] |  |
| Cc1ccc(Cl)cc1N1CCN(C2CCCCC2NS(=O)(=O)c2ccccc2)CC1 (stereo unspecified) | active: 18.4 µM |  |
| COc1ccc(-c2cc(C(=O)N/N=C/c3cccnc3)c3ccccc3n2)cc1 | inconclusive [inhibitor, partial curve] |  |

| SMILES | Potency | activity change, negative = growth inhibition |
| --- | --- | --- |
| Nc1nc(Nc2cccc(C(F)(F)F)c2)nc(C(F)(F)F)n1 |  | inconclusive: -30.4% [inhibitor] |
| Cc1ccc2nc(C)c3c(c2c1)N(c1ccccc1)CC3 | active: 13 µM |  |
| CC(=O)NC(=S)Nc1ccc(NC(=S)NC(=O)/C=C/c2ccco2)cc1 | inconclusive [inhibitor, partial curve, poor fit] |  |
| CCOc1ccc(CCNC(=O)COC(=O)Cn2cnc3ccccc3c2=O)cc1OCC | inactive |  |
| COc1ccc(CN(C)CC(=O)NC(C)c2ccccc2)cc1OC (stereo unspecified) | inconclusive [inhibitor, partial curve] |  |
| CCOC(=O)[C@@H]1[C@H]2COc3cc(OC)ccc3[C@H]2N2C(=O)N(c3cccc(C)c3)C(=O)[C@]12C | inactive |  |
| CCSc1nccc(-c2nn(-c3ccc(C)cc3)ccc2=O)n1 | active: 6.51 µM |  |
| Cc1ccccc1CNCc1c(C(=O)O)c(C)n(Cc2ccc(F)cc2Cl)c1C | inactive |  |
| N#C/C(=C(/O)c1ccc([N+](=O)[O-])cc1)c1nc2ccccc2[nH]1 | inconclusive [inhibitor, full curve, poor fit] |  |
| CCN1C(=O)[C@H]2[C@@H](c3ccc(-c4ccc(C(C)=O)cc4)cc3)N[C@@](Cc3ccccc3)(C(=O)OC)[C@H]2C1=O | inconclusive [inhibitor, single point] |  |
| Cc1ccc(-c2noc(-c3nnn(-c4ccc(Br)cc4F)c3C)n2)cc1 | inactive |  |
| CN(Cc1ccccc1)S(=O)(=O)c1nnc(NC(=O)c2ccccc2F)s1 | inactive |  |
| CCOc1ccc(CN(Cc2ccco2)S(=O)(=O)c2ccc(-n3cnnn3)c(OC)c2)cc1 | active: 16.4 µM |  |
| Cc1ccc(C(=O)NC(=S)N2CCN(C)CC2)cc1Br | inconclusive [inhibitor, single point] |  |
| Cc1nn(CC(=O)OCC(=O)Nc2c(C(C)C)cccc2C(C)C)c(C)c1[N+](=O)[O-] | inconclusive [inhibitor, single point] |  |
| Cc1cc(C(=O)N(C2CCCCC2)C2CCCCC2)no1 | active: 8.2 µM |  |
| COc1ccc(-c2cc(C)no2)cc1S(=O)(=O)N1CCN(C(=O)c2ccco2)CC1 | inactive |  |
| COc1ccc(NC(=O)CN(c2ccccc2)S(=O)(=O)c2ccccc2)c(OC)c1 | inconclusive [inhibitor, single point] |  |
| COc1ccc(S(=O)(=O)N2CCN(C(=O)Cc3cccs3)CC2)cc1 | inactive |  |
| S=C(NCc1ccccc1)N1CCN(C2CCCCC2)CC1 | inconclusive [inhibitor, single point] |  |
| O=C(O)/C=C/C(=O)NCCc1ccccc1 | inactive |  |
| Cc1cccn2c(=O)c(-c3nnn[nH]3)cnc12 | inactive |  |
| CCOC(=O)[C@]12CCCC=C1N(Cc1ccco1)C(=O)[C@H](CC(=O)N1CCC(c3ccccc3)CC1)C2 | inconclusive [inhibitor, single point] |  |
